# Hit rate of the full screen: of about 220,000 compounds, about 2,300 (1%) were called active. This list was built around the results that the source calls inconclusive (neither active nor inactive); the mix of calls is not that of the screen. Calls follow the shape of the dose curve; as a rule, active = well fitted inhibition curve with a large enough effect; inconclusive = small, poorly fitted or top-dose-only effect, or effect the other way; inactive = no such curve, though single readings can be large or run the other way. A potency beside an inconclusive call is a rough fit, not a confirmed value.
# Molecular target: Neuropeptide S receptor (Homo sapiens) (UniProt Q6W5P4)
# UniProt Q6W5P4, sequence (Q6W5P4 whole entry, looked up): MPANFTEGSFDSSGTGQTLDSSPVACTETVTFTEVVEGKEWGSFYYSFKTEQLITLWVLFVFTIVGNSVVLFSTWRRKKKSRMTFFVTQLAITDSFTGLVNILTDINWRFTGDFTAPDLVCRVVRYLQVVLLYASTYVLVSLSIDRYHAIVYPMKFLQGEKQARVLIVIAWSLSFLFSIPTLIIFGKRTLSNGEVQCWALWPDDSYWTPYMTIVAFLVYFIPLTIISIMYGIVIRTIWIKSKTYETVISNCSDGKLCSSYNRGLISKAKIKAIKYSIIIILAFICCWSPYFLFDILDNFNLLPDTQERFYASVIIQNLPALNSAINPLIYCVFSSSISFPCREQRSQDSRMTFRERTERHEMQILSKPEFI
# Assay: qHTS Assay for Antagonists of the Neuropeptide S Receptor: cAMP Signal Transduction; also: nearly all actives have a fitted effect of over 50% in size
# Settings: CHO-NPSR cells, cAMP TR-FRET, antagonist mode; activity change, negative = inhibition: at 38.3 µM (top of the series) unless noted
# Description: NIH Chemical Genomics Center [NCGC] NIH Molecular Libraries Probe Production centers Network [MLPCN] MLPCN Grant: X01-DA026210-01 Assay Submitter (PI): Heilig, Markus Alexander NCGC Assay Overview: Neuropeptide S receptor (NPSR), previously known as GPR154, is a recently de-orphanized G protein coupled receptor. Its endogenous ligand is the 20 amino acids peptide Neuropeptide S (NPS). […] NPS and its receptor are found in various tissues. Specifically they are highly expressed in brain areas that have been implicated in modulation of arousal, stress and anxiety. Central administration of NPS in mice produces an unusual profile of activity by inducing wakefulness and arousal, while at the same time suppressing anxiety. Therefore, NPSR may represent a novel drug target for the treatment of sleep and anxiety disorders. To identify NPSR antagonists, we developed a cell-based cAMP assay. NPS can stimulate the production of cAMP in Chinese hamster ovary cells stably expressing NPS receptor. This change in intracellular cAMP level can be detected by a homogeneous LANCE cAMP assay based on the TR-FRET (time resolved fluorescence resonance energy transfer) between a europium-labeled cAMP tracer complex and a cAMP-specific antibody labeled with Alexa Fluor 647. The europium-labeled cAMP tracer complex is formed by the tight interaction between Biotin-cAMP (b-cAMP) and streptavidin labeled with Europium-W8044 chelate (Eu-SA). Light pulse at 320 nm excites the europium of the cAMP tracer and the energy emitted is transferred to the Alexa molecule bound to the cAMP antibody, generating a TR-FRET signal at 665 nm. Residual energy from the europium will produce a light at 620 nm. The native unlabeled cAMP from cell lysates competes with the europium-cAMP tracer for antibody binding and reversely reduces the emission signal of Alexa by interrupting FRET between the two labeled molecules. Both emission signals from the FRET donor (620 nm) and the acceptor (665 nm) can be detected by a plate reader in the TRF mode. Expression of result in fluorescence ratio (665 nm/620 nm) helps to normalize differences due to cell density and reagent dispensing. This assay was successfully optimized to a 1536-well plate format.
# NCGC Assay Protocol Summary: A Chinese hamster ovary (CHO) cell line stably expressing the NPS receptor (CHO-NPSR) was obtained from Dr. Heilig lab at NIAAA and maintained in F-12 Kaighn's media (Invitrogen, Carlsbad, CA, 21127) supplemented with 10 % FBS, 100 units/ml penicillin, 100 ug/ml streptomycin and 250 ug/ml geneticin at 37C, 5% CO2 in a humidified atmosphere. Before the assay, aliquots of cells were frozen and stored at -135C. The assay was performed in 1536-well format. Data are reported for both the ratio of the two emission wavelengths, and also for the component 'donor' channel, Em2=620. Data were normalized to the controls for basal activity (DMSO only) and 100% inhibition (No NPS control). IC50 values were determined from concentration-response data modeled with the standard Hill equation. NPS 1536-well assay protocol: (1) Fresh or frozen CHO-NPSR cells were suspended in F-12 Kaighn's media supplemented with 10 % FBS, 100 units/ml penicillin and 100 ug/ml streptomycin. Cells were plated at 4 ul/well (1200 cells) to white, tissue culture treated 1536-well plates, and then cultured at 37C, 5 % CO2 for 16 to 30 hours. (2) Add 23 nl/well of compound in DMSO solution. The final titration for each compound was between 0.6 nM and 46 uM. (3) Add 1 ul of stimulation reagent (1X HBSS buffer, 5 mM HEPES, 0.1% BSA, 500 uM RO-201724 (Sigma-Aldrich, B8279), 1.5% Alexa 647-labeled anti-cAMP antibody (from Perkin Elmer), 100 nM NPS) (4) Incubation at 37C, 5 % CO2 for 60 min. (5) Add 1 ul/well detection reagent. Detection reagent was prepared by adding biotin labeled cAMP (4%), streptavidin labeled with Europium-W8044 chelate (1.33%) and TritonX-100 (1%) to detection buffer. […]
# % is scaled to controls: 0 for no effect and ±100 for the full control effect; potency is read from the fitted curve at half-maximal effect; tags tell the direction and shape of the fitted curve.
Compound,Potency,"activity change, negative = inhibition"
CCOc1ccc2c(c1)nc(SCC(=O)c1cccs1)n2C,"inconclusive: 5.01 µM [inhibitor, single point]",–
CCOc1ccc2nc(SCC(=O)Nc3cccc(S(=O)(=O)NC4=NCCCCC4)c3)[nH]c2c1,–,inactive: -8.91%
CS(=O)(=O)N(CC(=O)Nc1ccccc1C(=O)N1CCCC1)c1cccc([N+](=O)[O-])c1,–,inactive: 7.48%
Oc1ccccc1Nc1nc(NCc2ccco2)c2ccccc2n1,"inconclusive: 25.1 µM [inhibitor, single point]",–
Fc1ccc(NCc2nnc(SCc3nnc(-c4ccccc4)o3)n2Cc2ccccc2)cc1,"inconclusive: 25.1 µM [inhibitor, single point]",–
Cc1nn(CC(=O)N(C)C)c(=O)c2ccccc12,"inconclusive: 3.98 µM [inhibitor, single point]",–
Cc1cc(C)n2nc(SCC3COc4ccccc4O3)nc2n1 (stereo not drawn),–,inactive: -7.17% [at 46.1 µM]
COc1ccc(-c2cc(C(F)(F)F)n3ncc(C(=O)NCc4ccco4)c3n2)cc1,"inconclusive: 6.31 µM [inhibitor, partial curve, poor fit]",–
CCn1c(=O)cc(SCC(=O)N2CCOCC2)c2ccccc21,"inconclusive: 7.94 µM [inhibitor, partial curve, poor fit]",–
O=C(c1ccccc1)c1ccc2nc(-c3ccco3)c(-c3ccco3)nc2c1,–,inactive: -59.6%
COc1ccc(C(=O)Oc2cccc3cccnc23)cc1[N+](=O)[O-],"inconclusive: 12.6 µM [activator, single point]",–
Cc1ccc(S(=O)(=O)N(CC(=O)Nc2cccc(N(C)S(C)(=O)=O)c2)c2ccc(Cl)c(Cl)c2)cc1,"inconclusive: 12.6 µM [inhibitor, partial curve]",–
O=C(OCc1ccccc1)c1cn(-c2ccccc2)nc1-c1ccncc1,"inconclusive: 10 µM [inhibitor, partial curve]",–
Cc1ccc(-c2nc(-c3ccccc3)no2)c(Cl)c1,"inconclusive: 3.98 µM [inhibitor, single point]",–
COC(c1ccccc1)c1c(-c2ccccc2)nn(C)c1Cl (stereo not drawn),"inconclusive: 12.6 µM [inhibitor, single point]",–
O=C1CCCCc2sc(Br)c([N+](=O)[O-])c2N1,"inconclusive: 12.6 µM [inhibitor, single point]",–
CCCCOc1ccc(CNC(=S)N/N=C/c2ccc(OC)c(OC)c2)cc1,–,inconclusive: -36.4% [inhibitor] [at 46.1 µM]
CC1CN(C(=O)c2cccc(C(=O)N3CC(C)OC(C)C3)c2)CC(C)O1 (stereo not drawn),–,inactive: 10.1% [at 46.1 µM]
O=C(Nc1ccccc1)c1nnsc1S(=O)c1ccc(Cl)cc1 (stereo not drawn),"inconclusive: 12.6 µM [inhibitor, partial curve]",–
O=S(=O)(Nc1ccc(O)c(Sc2nc3ccccc3s2)c1)c1cccc2ccccc12,"inconclusive: 10 µM [inhibitor, single point]",–
COc1ccc(Nc2nc(N)c([N+](=O)[O-])c(NCc3ccccc3)n2)cc1,"inconclusive: 25.1 µM [inhibitor, single point]",–
O=C(OCc1cccs1)c1ccccc1NS(=O)(=O)c1ccc2c(c1)OCCO2,"inconclusive: 12.6 µM [inhibitor, single point]",–

Compound,Potency,"activity change, negative = inhibition"
Cc1cccc(NC(=O)C2C3C=CC(C4CC34)C2C(=O)O)c1 (stereo not drawn),"inconclusive: 1.26 µM [activator, single point]",–
CC(NC(=O)CN(c1cccc(C(F)(F)F)c1)S(=O)(=O)c1ccc(Cl)c([N+](=O)[O-])c1)c1ccccc1 (stereo not drawn),"inconclusive: 25.1 µM [inhibitor, single point]",–
Cc1ccc2[nH]c(=O)c(C(c3nnnn3C3CCCC3)N(Cc3cccnc3)Cc3ccco3)cc2c1 (stereo not drawn),"inconclusive: 12.6 µM [inhibitor, single point]",–
O=C(/C=C/c1cccc(Br)c1)NCC1CCCCC1,–,inactive: -22.6% [at 46.1 µM]
O=C(Nc1ccc(Cl)cc1)OCc1cc(-c2ccccc2Cl)on1,–,inactive: -24.6% [at 46.1 µM]
Nc1nc(-c2ccc(Cl)cc2)nnc1-c1ccc(Br)cc1,"inconclusive: 10 µM [activator, partial curve]",–
CCC1=Nc2cc(C(=O)NCCCOC)ccc2Sc2ccccc21,"inconclusive: 2 µM [activator, full curve, poor fit]",–
C=C(C(=O)c1ccccc1)C(CC(=O)c1ccccc1)c1ccccc1 (stereo not drawn),"inconclusive: 12.6 µM [inhibitor, single point]",–
Cc1ccc(NC2(c3nnnn3-c3c(C)cccc3C)CCCCC2)cc1,"inconclusive: 10 µM [inhibitor, single point]",–
COc1ccc2c(C)cc(SCc3c(C)noc3C)nc2c1,–,inactive: -33.8% [at 46.1 µM]
S=C(NCCN1CCOCC1)N/N=C/c1c2ccccc2cc2ccccc12,"inconclusive: 12.6 µM [inhibitor, single point]",–
COC(=O)C(Nc1ccccc1Cl)(c1cc(C)c(O)c(C)c1)C(F)(F)F (stereo not drawn),"inconclusive: 12.6 µM [inhibitor, single point]",–
Cc1ccc(C(=O)O)cc1N1C(=O)c2cccc3cc(Br)cc(c23)C1=O,–,inactive: -11.2% [at 46.1 µM]
CC1=CC(=O)C=C(C)C1=NOS(=O)(=O)c1ccccc1,active: 7.94 µM,–
CCCCCCCCCCn1c2c(c(=N)c3c1CCC3)CCC2,"inconclusive: 25.1 µM [inhibitor, single point]",–
O=C(NCCc1ccccn1)c1cc(-c2ccccc2Cl)nc2ccccc12,–,inactive: 4.51%
CCOC(=O)Cc1csc(NC(=S)NC(=O)c2ccc(C)cc2)n1,"inconclusive: 25.1 µM [inhibitor, single point]",–
CC(NC(=O)OCc1ccccc1)C(=O)Oc1cc2oc(=O)cc(-c3ccccc3)c2cc1Cl (stereo not drawn),–,inactive: -1.88%
CCCCCc1cc(=O)oc2c(C(CCN(CC)CC)c3ccc(N(C)C)cc3)c(OC)cc(OC)c12 (stereo not drawn),"inconclusive: 25.1 µM [inhibitor, single point]",–
O=C(O)CCc1ccc(-c2ccc(Br)cc2)o1,"inconclusive: 12.6 µM [activator, partial curve]",–
CCOc1ccccc1-c1nc(-c2cc3ccc(C)cc3[nH]c2=O)no1,"inconclusive: 25.1 µM [inhibitor, single point]",–

# Source: PubChem BioAssay AID1461 (National Center for Advancing Translational Sciences (NCATS), 2008)
